# Assay results: the supplement of paper PMC12217912
# Some of the results follow. The full chains were built here from the parent and the listed change. Values near 0.05 are background.
# B1: TEV protease; numbered along this chain (parent)
# chain: MGESLFKGPRDYNPISSSICHLTNESDGHTTSLYGIGFGPFIITNKHLFRRNNGTLVVQSLHGVFKVKDTTTLQQHLVDGRDMIIIRMPKDFPPFPQKLKFREPQREERICLVTTNFQTKSMSSMVSDTSCTFPSGDGIFWKHWIQTKDGQCGSPLVSTRDGFIVGIHSASNFTNTNNYFTSVPKNFMELLTNQEAQQWVSGWRLNADSVLWGGHKVFMVKPEEPFQPVKEATQL
# Variants of: B1
# Experiment: raw area under fraction-flipped curve 0-4 h after induction (AUC4h, not background-subtracted), DNA-recorder readout of cleavage of the substrate (dimensionless); higher = more cleavage of the substrate by the protease variant
# Settings: temperature: 34 °C; time window: 0-4 h after rhamnose induction
# 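Further: Bxb1 expression induced with 0.2% (w/v) L-rhamnose at OD600 near 0.5, cultures sampled hourly, flipped fraction per protease–substrate barcode pair counted by paired-end Illumina sequencing.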
Variant,area with substrate EDLYFQS,area with substrate EELYFQS,area with substrate EFLYFQS,area with substrate EHLYFQS,area with substrate EQLYFQS,area with substrate ERLYFQS,area with substrate ESLYFQS,area with substrate EVLYFQS,area with substrate EILYFQS,area with substrate EKLYFQS
I86N,0.0503,0.0477,0.0453,0.0697,0.0497,0.0439,0.0489,0.0455,–,–
Q74S,0.133,0.0695,0.0968,–,0.124,0.122,0.11,0.0829,0.0673,0.0887
H215A,–,0.0701,–,–,0.0708,–,0.0676,0.0575,0.0478,0.0661
K120N,–,0.169,–,–,–,0.111,–,–,0.0888,–
S18M,–,0.0977,–,–,–,0.113,0.0968,0.0799,–,0.11
F218R,–,0.132,–,–,–,–,0.0967,–,–,–
D208W,–,0.0674,0.0664,0.112,–,0.0587,0.0751,0.0943,0.0701,0.0873
G136A,–,0.0951,–,0.0703,0.131,–,0.076,–,–,0.13
T119F,–,0.115,–,0.0981,–,–,–,–,–,0.0975
D128G,–,0.174,–,–,–,–,–,–,–,–
N193S,–,0.106,–,–,–,–,0.107,–,0.0901,–
G138R,–,0.0673,–,0.105,0.0948,–,0.0873,0.0914,0.0978,–
P96Q,–,0.109,–,0.0936,0.129,0.115,0.0905,–,0.101,0.117
N172C,–,0.0702,0.097,0.0652,0.0569,–,0.0696,0.0592,–,–
F95M,–,0.107,–,–,–,–,0.0669,–,–,–
I85L,–,0.093,0.121,–,–,–,0.125,0.0975,0.101,0.102
L77P,–,0.0954,–,0.119,0.122,0.0669,0.098,–,0.0925,–
R160E,–,–,0.14,–,0.127,0.0854,0.0949,0.116,0.091,–

Variant,area with substrate EDLYFQS,area with substrate EELYFQS,area with substrate EFLYFQS,area with substrate EHLYFQS,area with substrate EQLYFQS,area with substrate ERLYFQS,area with substrate ESLYFQS,area with substrate EVLYFQS,area with substrate EILYFQS,area with substrate EKLYFQS
Y34L,–,–,0.0973,–,–,0.0894,0.0942,0.084,–,–
N177Y,–,–,0.092,–,0.074,0.0441,–,–,–,–
V57R,–,–,0.0867,–,–,0.0812,–,–,0.101,0.0994
N116C,–,–,–,–,–,0.0753,0.0978,0.135,0.0759,0.0661
D161Q,–,–,–,–,–,–,0.0661,0.047,0.0609,–
P104K,–,–,–,–,–,–,–,0.0419,–,–
M83F,–,–,–,0.105,0.102,0.0694,0.0732,0.0713,0.0717,–
K216M,–,–,–,0.112,0.0937,–,0.117,0.099,0.1,–
T115G,–,–,–,–,0.119,–,–,0.0722,0.064,–
T119M,–,–,–,–,0.147,–,0.0677,0.103,0.0792,0.098
I164F,–,–,–,–,–,–,0.0388,–,0.0534,–
G214C,–,–,–,–,–,–,–,0.0883,0,–
T114H,–,–,–,–,–,–,0.0977,–,0.128,–
I145E,–,–,–,–,–,0.0019,0.0633,–,0.0736,0.0082
G153R,–,–,–,–,–,–,–,0.0542,–,0.0554
T174A,–,–,–,–,–,–,0.104,–,–,–
S121T,–,–,–,–,–,–,0.106,0.109,–,–

# Same assay, conditions: temperature: 34 °C; time window: 0-4 h after rhamnose induction
Variant,area with substrate EMLYFQS,area with substrate ETLYFQS,area with substrate EWLYFQS,area with substrate EPLYFQS,area with substrate EYLYFQS,area with substrate EGLYFQS,area with substrate ELLYFQS
Q74S,0.0552,0.121,0.0949,–,–,–,–
H215A,–,–,–,0.0765,0.057,–,–
K120N,0.0753,–,–,–,–,0.0821,–
S18M,–,0.105,0.123,0.118,0.0962,0.0914,0.132
D208W,0.101,–,–,0.0755,–,0.0584,0.0655
G136A,0.0891,–,–,0.106,–,–,0.0854
T119F,0.113,–,0.115,0.0319,–,–,–
N193S,–,–,–,–,–,0.11,–
G138R,–,–,–,0.118,0.0891,0.0843,–
P96Q,0.0601,–,–,–,0.0967,–,–
N172C,0.0708,0.0298,0.0709,–,–,0.0593,–
F95M,0.139,–,0.0889,–,–,–,–
I85L,0.115,0.122,–,–,–,–,–
L77P,0.119,–,–,0.118,0.0942,–,0.0959
R160E,–,0.0606,0.102,0.148,–,0.0637,–
Y34L,–,–,–,0.121,0.103,–,–
N177Y,–,–,0.0753,0.0682,0.0545,–,–
N116C,–,–,0.0996,–,–,0.0876,–
D161Q,0.0768,–,0.0607,–,–,0.0546,–
P104K,–,–,–,0.123,0.0568,0.0471,–
M83F,–,0.1,0.0982,–,–,–,0.0667
K216M,0.112,–,–,–,–,–,–
T115G,–,–,–,0.085,–,–,–
T119M,0.112,–,–,0.149,0.0901,–,–
I164F,–,0.0653,–,0.0608,–,–,–
T114H,–,–,–,–,0.101,–,–
I145E,–,–,0.0564,–,–,–,–
G153R,–,0.0421,–,–,–,–,–
S121T,–,–,0.0973,–,0.119,–,–
G35K,–,–,0.0588,–,0.0494,–,–
